In the supplement of paper PMC11383711:
Some of the results follow. Binding of human antibodies (heavy:light variable regions, tested as scFv in one mRNA-display pool) to influenza hemagglutinin, with or without the stem antibody CR9114 bound first. Score = (mean enrichment − median) / interquartile range of that screen; higher = more enriched, 0 = typical non-binder. Active = above the paper's cut-off per screen: stems 28; unblocked H1 Solomon Islands 5, H1 Michigan 3, H3 5, H5 19, H7 2.85, both B 5; blocked 9, 7, H5 10, H7 10, B Phuket 10, B Lee 11.5. Scores are scaled within each screen and are no affinities; replicates correlate at about 0.6 to 0.9, and antibodies rare in the pool are noisier.

B1: 01.m.01 (protein)
chain 1: EVQLVESGGGLVQPGWSLRLSCAASGFTFDSHAMHWVRQTPGKGLEWVSGITWSSNEVGYADSVKGRFTTSRDNAKNSLYLQMNSLRLEDTALYYCTTAGGKGNWGRDDYWGQGTLVTVSS
chain 2: DIHMTQSPSSLSASVGDRVTITCRASQGIRSYLAWYQQKPGKAPKLLIYAASTLQSGVPSRFSGSGSGTDFTLTISSLQPEDFATYYCQQVDDYPYLFAQGTKLEIK
B2: K77-1G08 (protein)
chain 1: LVQPQESGPGLVKPSETLSLTCTVSNGSISSGNFYWGWIRQPPGKGLEWLGAIYYTGITYYSPSLKRRLTISVDTSMNQFSLRLNSVTAADTAVYYCARDLAPYYYGSGTFYNIFDHWGQGTLITVSS
chain 2: QSALTQPPSVSAAPGQRVTISCSGSRSNIGNYYVSWYQQFPGTAPKLLIYDNDKRPSGIPDRFSGSKSGTSATLGITGLQTGDEADYYCGTWDSSLSAHVIFGGGTKLTVL
B3: C6-2-D02 (protein)
chain 1: VQLVESGGGLVQPGGSLRLSCAASGFTFNTHLMYWVRQAPGKGLEWVSLISPAGRNKFYADSVRARFTISRVNSRNTLYLQIDTVRPEDTAVYYCATRSVGATGYLSWGPKDYSYNDVDVWGQGTTVTVSS
chain 2: DIQMTQSPSSLSASVGDTVTIACRASQGIRSDLGWYQQQAGKAPRRLIYGASSLQSGVPSRFSGSGSGTEFTLTISSLQPEDFATYYCLQHNSYPWTFGQGTKVEIK
B4: 009-10-1G06 (protein)
chain 1: EVQLVETGGGLIQPGGSLRLSCTASKFTVSINYMSWVRQTPGKGLEWVSIIYDDGSTFYADSVRGRFTISRDNSKNTIYLQMNSLRADDTAVYYCARDPGMRGYFDHWGQGTLVTVSS
chain 2: QSVLTQPPSVSGAPGQRVAISCTGSSSNIGAGYDVHWYQQLPGTAPKLLIYDNNSRPSGVPDRFSGSKSGTSASLAITGLQAEDEADYYCQSYDSGVSGYVFGTGTKVTVL
B5: K77-2A03 (protein)
chain 1: LVQLQESGPGLVKPSETLSLTCTVSGGSISSSTYYWGWIRQPPGKGLEWIGSIYYTGDTYYNPSLKSRVTISVDSSKNQFSLKLSSLTAADTAVYYCARERAWLRGPFDFWGRGTLVTVSS
chain 2: DIVMTQSPDSLAVSLGERATINCKSSQSILFSSYNKNHLAWYQQKPGQPPKLLIYWASTRESGVPDRFSGSGSGTDFTLTISSLQAEDVAVYFCQQYYSPPSFTFGQGTKLEIK
B6: C6-2-C01 (protein)
chain 1: VQLVESGGGLVKPGASLRLSCVGSGFIFSNAWMNWVRQAPGKGLEWVGRMKIYTDGGTTDYAAPVKGRFTISRDDSKNTLYLQMSSLKTEDTAMYYCVTDFSGRRPYWGQGTLVTVSS
chain 2: DIQMTQSPSTLSASVGDRVTITCRASQRISNWLAWYQQKPGKAPKLLIYEASTLESGVPSRFSGSGSGTEFTLTINSLQPDDFATYYCQLYNDYSGFTFGPGTKVDIK
B7: 039-10-4D04 (protein)
chain 1: QVQLVESGGGVVQPGTSLRLSCVVSGFPFRSYSIHWVRQAPGKGLEWVAVISYDGDNKYYADSVKGRFTISRDNSKKTAYLQMNSLRVDDTAIYFCARDPVEYSSVSYYFLYGMDVWGQGTTVTVSS
chain 2: QSVLTQPPSVSGAPGQRVTISCTGSSSNIGAGYDVHWYQQLPGTAPKLLIYGNINRPSGVPDRFSGSKSGTSASLAISGLQAEDEGDYYCQSYDNSLLLSVVFGSGTRLTVL
B8: antibody 4B04 (protein)
chain 1: VQLVESGGGVVQPGRSLRLSCAVSGFTFISYDMHWVRQAPGKGPEWMAYISYDGNRQYYADSVKGRFTISRDNSKNTLHLQMNSLKPEDTAVYSCAREFVPPGPDDYYFGLDVWGQGTTVTVSS
chain 2: EIVLTQSPATLSLSPGDRATLSCRASQSVGSYLAWYQQKPGQAPRLLIYDASKRATDIPARFSGSGSGTDFTLTISSLEPADFAIYYCQLRSDWPPGFTFGRGTKVEIK
B9: antibody 6F06 (protein)
chain 1: VQLVESGGGLVQPGRSLRLSCAASGFTFDDYAMHWVRQAPGKGLEWVSTISWGSAGVGYADSVKGRFTISRDNANSALYLQMSSLRPEDTALYYCAKDRGYSTSQDYYYYFGMDVWGQGTTVTVSS
chain 2: DIQMTQSPSSLSASVGDRVTITCQASQDINKYLIWYQQRPEKAPKLLIYDASNLETGVPSRFSGSGSGTDFTFTISNLQPEDIATYYCQQYESFPLTFGGGTKVEIK
B10: K77-1F11 (protein)
chain 1: QVQLVQSAAEVKKPGASVKVSCKASGYSFTSYQVHWVRQAPGQGLEWMGMIIPTPGSINYAQKFQGRVTMTRDTSTNTVYMEVSGLRSDDTAVYYCARRGSYISGHYTYYGMDVWGQGTTVTVSS
chain 2: EIVLTQSPGTLSLSPGERATLSCRASQSVSNSYLAWYQQRPGQAPRLLFYGASSRATGIPDRFSGYGSGTDFTLTISRLEPEDFAVYYCHHYGGSAGTFGQGTKVEIK
B11: W85-1C02 (protein)
chain 1: EVQVVESGGGLVQPGGSLRLSCAASGFTVSGNYMHWVRQAPGKGLEWVSVLYAGGRTYYADSVKGRFTISRDNSKNMLYLQMNSLSVEDTAVYYCAGLSLEWLDVWGQGTTVAVSS
chain 2: DIQMTQSPSSLSASVGDRVTITCRAGQNIASYLNWYQHRPGKAPRLLIFAASSLQTGVPSRFSGSGSGSDFTLTISSLQPEDFATYYCQQTYSFFLTFGGGTKVEVK
B12: antibody 3F01 (protein)
chain 1: EVQLVESGGGLVLPGRSLTLSCVASGFTYDDYAMHWVRQVPGKGLEWVAGISWDSVSIGYEDSLRGRFTISRDNAKNSLYLQINSLRDEDTAFYYCAKQGEMRGYDYRLHWFFDLWGRGTLVTVSS
chain 2: EIVLTQSPGTLSLSPGERATLSCRASQSVSSHLVWYQMKPGQAPRLLIYGASSRATGIPDRFSGSGSGTDFTLNIRRLEPEDFAVYFCQQFEDLPITFGRGTRLEIK
B13: antibody 4G04 (protein)
chain 1: VQLVESGGAVVQPGRSLRLSCTASGFIFSRFAIHWVRQAPGKALEWVAVISDDASKEDYADSVKGRFIISRDNSKSTLYLQMNSLTTEDTAVYYCARDPTHSGDIISWFFDSWGQGILVTVSS
chain 2: SYELTQPPSVSVSPGQTANITCSGDKLGDKYTSWYQQKSGQSPVLVIYHDTRRPSGIPERFSGSSSGNTATLTISGTQVMDEADYYCQAWVWDSYVVFGGGTKLTVL
B14: antibody 2G02 (protein)
chain 1: EVQLVESGGGLVQPGRSLRLSCAASGFTFDDYTMHWVRQAPGRGLEWVSSINWVSSTVGYADSVKGRFTISRDNAKNSLYLQMNSLRPEDTALYYCARDRRTDATMDYYFYSAMDVWGRGTTVTVSS
chain 2: DIQMTQSPSSLSASVGDRVTITCQASQDISKYLNWYQQKPGKAPKLLIYDASTLETGVPSRFSGSASGTDFTFTISNLQPEDIATYYCQQYDNLPITFGQGTRLEIK
B15: C7-3-C02 (protein)
chain 1: QVQLQESGPGLVKPSETLSLTCNVSGDSVSSGNYYWSWIRQPPGKALEWIGYIYNRGRTKYNSALKSRVTISEDTANNQFSLRLTSVTAADTAIYYCARDNVVSLGRFGEFALYIDYWGRGTLVTVS
chain 2: DIQMTQSPSSLSASVGDRVTITCRASQSINTYLNWYQQKPGAAPKLLIYGASTLQSGVPSRFSGGGSGTDFTLTISSLQPDDFATYHCQQSYGIPLTFGQGTRLEIK
B16: R95-2H10 (protein)
chain 1: EVQLVASGGALGQPDRSLRLSCAASGFIFEEYALHWVRQAPGKGLEWVSNVSWNSGYRAYADSVKGRFTISRDNAEKSLSLQMNSVRREDTAFYYCAKDRAGHLGSGSYFDSWGQGTLVTVSS
chain 2: SYELTQPPSVSVAPGQTARIPCGGNNIGSKSVHWYQQKPGQAPVLVVYDDSDRPSGIPERFSGSNSGNTATLTISRVEAGDEADYYCQVWDGYSDPLFVFGTGTKV
B17: antibody 3G04 (protein)
chain 1: VQLVESGGAVVQPGRSLRVSCAASGFNFRTYGMYWVRQAPGKGLEWVALISYDGDKKFYADFAKGRFTISRDNSKNRFYLQMNSLQSDDTAMYYCAKDGPRGGGSGSLAHWGQGTLVTVSS
chain 2: VSASPGHKITISCSGSGPNIGTNRVSWYQQFPGTVPRPLIYDDYLRPSGIPERFSGSKSGTSATLDITELQTGDEADYYCGTWDSSLSVWVFGGGTKLTVL
B18: C1-2-B02 (protein)
chain 1: VQLVQSGAELKKPGASVKVSCKASGYTFTDYYLHWVRQAPGQGLEWMGWIKPNFGGTIYAQKFQGRVTVTSDTSINTAYMELSRLTSDDTAVYYCARAVYYDLTSDFCVDCYDAFDVWGQGTMVTVSS
chain 2: DIQLTQSPSFLSAFVGDRVTITCRASQGISTYLAWYQQKPGKAPKLLIYAASILQSGVPSRFRGSGSGTEFTLTISSLQPEDFATYYCQQLNSYVVTFGQGTKVEIK
B19: R95-2G10 (protein)
chain 1: EVQLVESGGGVVHPGGSLRLSCAASGFTFSSYAMHWVRQAPGKGLEGVAFIKYDGTNKYYADSLKGRFTISRDNSKNTLYLQMNSLRADDTAVYYCAKAHNAAVAGLAEYFEHWGQGTLVTVSS
chain 2: SYELTQPPSVSVAPGQTARITCGGNNIGSKNVHWYQQKPGQAPVLVVHDDSDRPSGIPERFSGSNSGNTATLTISRVEAGDEADYYCQVWDRHSDHFWVFGGGTKLTVL

The binders below were run against H1 HA stem construct (mini-HA #4900) (assay: mRNA display binding score; higher = more enriched on the antigen). Settings: antigen blocked with: nothing.
Description: (§1)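 A pool of natively paired antibodies, displayed as scFv on mRNA, was selected once on antigen-coated beads and sequenced before and after; two replicates.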
In the case of B1, the “mRNA display binding score” value is reported as inactive: 0.841.
In the case of B2, the “mRNA display binding score” value is reported as inactive: -0.426.
In the case of B3, the “mRNA display binding score” value is reported as inactive: -0.091.
With B4 the “mRNA display binding score” value was inactive: -0.809.
With B5 the “mRNA display binding score” value was inactive: 0.133.
With B6 the “mRNA display binding score” value was inactive: 0.461.
B7 was tested, and the “mRNA display binding score” value was inactive: 0.0979.
In the case of B8, the “mRNA display binding score” value is reported as inactive: 0.276.
With B9 the “mRNA display binding score” value was inactive: 0.439.
B10 was tested, and the “mRNA display binding score” value was inactive: 0.199.
With B11 the “mRNA display binding score” value was inactive: 0.149.
In the case of B12, the “mRNA display binding score” value is reported as inactive: 1.16.
B13 was tested, and the “mRNA display binding score” value was inactive: 0.802.
B14 was tested, and the “mRNA display binding score” value was inactive: -0.494.
With B15 the “mRNA display binding score” value was inactive: 1.62.
In the case of B16, the “mRNA display binding score” value is reported as inactive: 0.0967.
In the case of B17, the “mRNA display binding score” value is reported as inactive: -0.779.
With B18 the “mRNA display binding score” value was inactive: 0.0179.
B19 was tested, and the “mRNA display binding score” value was inactive: -1.

Each binder was assayed against H3 HA stem construct (H3ssF) in the same assay as above. Settings: antigen blocked with: nothing.
Description: as §1
B1 was tested, and the “mRNA display binding score” value was inactive: -0.098.
In the case of B2, the “mRNA display binding score” value is reported as inactive: -0.21.
With B3 the “mRNA display binding score” value was inactive: -0.277.
B4 was tested, and the “mRNA display binding score” value was active: 98.
With B5 the “mRNA display binding score” value was inactive: -0.181.
In the case of B6, the “mRNA display binding score” value is reported as inactive: 8.87.
With B7 the “mRNA display binding score” value was inactive: -0.24.
In the case of B8, the “mRNA display binding score” value is reported as inactive: -0.251.
For B9, the “mRNA display binding score” value was inactive: 0.729.
For B10, the “mRNA display binding score” value was inactive: -0.0877.
B11 was tested, and the “mRNA display binding score” value was inactive: -0.485.
For B12, the “mRNA display binding score” value was inactive: 0.634.
B13 was tested, and the “mRNA display binding score” value was inactive: -0.0214.
B14 was tested, and the “mRNA display binding score” value was inactive: 1.9.
For B15, the “mRNA display binding score” value was inactive: 5.95.
With B16 the “mRNA display binding score” value was inactive: 0.0271.
In the case of B17, the “mRNA display binding score” value is reported as inactive: -0.539.
In the case of B18, the “mRNA display binding score” value is reported as inactive: -0.182.
In the case of B19, the “mRNA display binding score” value is reported as inactive: -0.0869.
